# The list shows a part of the results.
# Key:
# Experiment in all cases: glycan array binding signal (z-score within array); higher = stronger binding
# Details in all cases: glycan notation: IUPAC condensed, linker removed
# [1] = target: Neu5Ac(a2-6)Gal(b1-4)GlcNAc(b1-6)[Gal(b1-3)]GalNAc
# Outline: (§1)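 From the Consortium for Functional Glycomics database, 3228 arrays were curated, keeping only those whose protein sequence was available. Binding is given as a within-array Z-score averaged across arrays sharing a protein sequence and across linkers. Negative Z-scores can be read as non-binding.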
# [2] = target: Neu5Ac(a2-6)Gal(b1-4)GlcNAc6S
# Outline: as §1
# Neu5Ac(a2-6)GalNAc = target: Neu5Ac(a2-6)GalNAc
# Outline: as §1
# [3] = target: Neu5Ac(a2-6)GalNAc(b1-4)GlcNAc
# Outline: as §1
# [4] = target: Neu5Ac(a2-6)GalNAc(b1-4)GlcNAc6S
# Outline: as §1
# [5] = target: Neu5Ac(a2-6)GlcNAc(b1-4)GlcNAc
# Outline: as §1
# [6] = target: Neu5Ac(a2-6)GlcNAc(b1-4)GlcNAc(b1-4)GlcNAc
# Outline: as §1
# Neu5Ac(a2-8)Neu5Ac = target: Neu5Ac(a2-8)Neu5Ac
# Outline: as §1
# [7] = target: Neu5Ac(a2-8)Neu5Ac(a2-3)Gal(b1-3)GalNAc(b1-4)[Neu5Ac(a2-3)]Gal(b1-4)Glc
# Outline: as §1
# [8] = target: Neu5Ac(a2-8)Neu5Ac(a2-3)Gal(b1-3)GalNAc(b1-4)[Neu5Ac(a2-8)Neu5Ac(a2-3)]Gal(b1-4)Glc
# Outline: as §1
# [9] = target: Neu5Ac(a2-8)Neu5Ac(a2-3)Gal(b1-4)Glc
# Outline: as §1
# [10] = target: Neu5Ac(a2-8)Neu5Ac(a2-3)Gal(b1-4)GlcNAc
# Outline: as §1
# [11] = target: Neu5Ac(a2-8)Neu5Ac(a2-3)[Gal(b1-3)GalNAc(b1-4)]Gal(b1-4)Glc
# Outline: as §1
# [12] = target: Neu5Ac(a2-8)Neu5Ac(a2-3)[GalNAc(b1-4)]Gal(b1-4)Glc
# Outline: as §1
# [13] = target: Neu5Ac(a2-8)Neu5Ac(a2-8)Neu5Ac
# Outline: as §1
# [14] = target: Neu5Ac(a2-8)Neu5Ac(a2-8)Neu5Ac(a2-3)Gal(b1-4)Glc
# Outline: as §1
# [15] = target: Neu5Ac(a2-8)Neu5Ac(a2-8)Neu5Ac(a2-3)[Gal(b1-3)GalNAc(b1-4)]Gal(b1-4)Glc
# Outline: as §1
# [16] = target: Neu5Ac(a2-8)Neu5Ac(a2-8)Neu5Ac(a2-3)[GalNAc(b1-4)]Gal(b1-4)Glc
# Outline: as §1
# [17] = target: Neu5Ac(a2-8)Neu5Ac(a2-8)Neu5Ac(a2-8)Neu5Ac(a2-3)[GalNAc(b1-4)]Gal(b1-4)Glc
# Outline: as §1
# [18] = target: Neu5Ac(a2-8)Neu5Gc(a2-3)Gal(b1-4)GlcNAc
# Outline: as §1
# [19] = target: Neu5Ac(b2-6)Gal(b1-4)GlcNAc
# Outline: as §1
# Neu5Ac(b2-6)GalNAc = target: Neu5Ac(b2-6)GalNAc
# Outline: as §1
# [20] = target: Neu5Ac9Ac(a2-3)Gal(b1-3)GlcNAc
# Outline: as §1
# [21] = target: Neu5Ac9Ac(a2-3)Gal(b1-4)GlcNAc
# Outline: as §1
# [22] = target: Neu5Ac9Ac(a2-6)Gal(b1-4)GlcNAc
# Outline: as §1
# [23] = target: Neu5Gc(a2-3)Gal(b1-3)GlcNAc
# Outline: as §1
# [24] = target: Neu5Gc(a2-3)Gal(b1-3)[Fuc(a1-4)]GlcNAc
# Outline: as §1
# Neu5Gc(a2-3)Gal(b1-4)Glc = target: Neu5Gc(a2-3)Gal(b1-4)Glc
# Outline: as §1
# [25] = target: Neu5Gc(a2-3)Gal(b1-4)GlcNAc
# Outline: as §1
# [26] = target: Neu5Gc(a2-3)Gal(b1-4)GlcNAc(b1-3)Gal(b1-4)GlcNAc(b1-2)Man(a1-3)[Neu5Gc(a2-3)Gal(b1-4)GlcNAc(b1-3)Gal(b1-4)GlcNAc(b1-2)Man(a1-6)]Man(b1-4)GlcNAc(b1-4)GlcNAc
# Outline: as §1
# [27] = target: Neu5Gc(a2-3)Gal(b1-4)[Fuc(a1-3)]GlcNAc
# Outline: as §1
# [28] = target: Neu5Gc(a2-6)Gal(b1-4)GlcNAc
# Outline: as §1
# Neu5Gc(a2-6)GalNAc = target: Neu5Gc(a2-6)GalNAc
# Outline: as §1
# [29] = target: Neu5Gc(a2-8)Neu5Ac(a2-3)Gal(b1-4)GlcNAc
# Outline: as §1
# [30] = target: Neu5Gc(a2-8)Neu5Gc(a2-3)Gal(b1-4)GlcNAc
# Outline: as §1
# [31] = target: Neu5Gc(a2-8)Neu5Gc(a2-3)Gal(b1-4)GlcNAc(b1-3)Gal(b1-4)GlcNAc
# Outline: as §1
# [32] = target: Neu5Gc(a2-8)Neu5Gc(a2-6)Gal(b1-4)GlcNAc
# Outline: as §1
# [33] = target: Neu5Gc(b2-6)Gal(b1-4)GlcNAc
# Outline: as §1
binder,measurement,setting,value
FimD (Bordetella pertussis) (protein) MPARVISFCGAALAVWAGLAVQPAMAVDPPVDCGRALGLHFWSSASLISDQTPDGTLIGKPVVGRSLLSKSCKVPDDIKEDLSDNHDGEPVDIVLELGSNYKIRPQSYGHPGIVVDLPFGSTEETGIAIYIDFGSSPMQKVGERQWLYPQKGEVLFDVLTINGDNAEVRYQAIKVGPLKRPRKLVLSQFPNLFTYKWVFMRGTSQERVLAQGTIDTDVATSTIDLKTCRYTSQTVSLPIIQRSALTGVGTTLGMTDFQMPFWCYGWPKVSVYMSATKTQTGVDGVALPATGQAAGMASGVGVQLINGKTQQPVKLGLQGKIALPEAQQTESATFSLPMKAQYYQTSTSTSAGKLSVTYAVTLNYD,glycan array binding signal (z-score),[1],-0.022
same,glycan array binding signal (z-score),[2],-0.459
same,glycan array binding signal (z-score),Neu5Ac(a2-6)GalNAc,-0.41
same,glycan array binding signal (z-score),[3],-0.215
same,glycan array binding signal (z-score),[4],-0.262
same,glycan array binding signal (z-score),[5],-0.316
same,glycan array binding signal (z-score),[6],-0.014
same,glycan array binding signal (z-score),Neu5Ac(a2-8)Neu5Ac,0.074
same,glycan array binding signal (z-score),[7],-0.328
same,glycan array binding signal (z-score),[8],1.36
same,glycan array binding signal (z-score),[9],-0.096
same,glycan array binding signal (z-score),[10],-0.669
same,glycan array binding signal (z-score),[11],-0.095
same,glycan array binding signal (z-score),[12],0.584
same,glycan array binding signal (z-score),[13],-0.233
same,glycan array binding signal (z-score),[14],-0.358
same,glycan array binding signal (z-score),[15],-0.208
same,glycan array binding signal (z-score),[16],-0.22
same,glycan array binding signal (z-score),[17],-0.59
same,glycan array binding signal (z-score),[18],-0.368
same,glycan array binding signal (z-score),[19],-0.262
same,glycan array binding signal (z-score),Neu5Ac(b2-6)GalNAc,-0.348
same,glycan array binding signal (z-score),[20],-0.439
same,glycan array binding signal (z-score),[21],-0.385
same,glycan array binding signal (z-score),[22],-0.466
same,glycan array binding signal (z-score),[23],-0.312
same,glycan array binding signal (z-score),[24],0.288
same,glycan array binding signal (z-score),Neu5Gc(a2-3)Gal(b1-4)Glc,-0.124
same,glycan array binding signal (z-score),[25],-0.387
same,glycan array binding signal (z-score),[26],0.349
same,glycan array binding signal (z-score),[27],0.275
same,glycan array binding signal (z-score),[28],0.119
same,glycan array binding signal (z-score),Neu5Gc(a2-6)GalNAc,0.269
same,glycan array binding signal (z-score),[29],-0.294
same,glycan array binding signal (z-score),[30],-0.173
same,glycan array binding signal (z-score),[31],-0.561
same,glycan array binding signal (z-score),[32],-0.611
same,glycan array binding signal (z-score),[33],0.351
